Results reported in PubChem BioAssay AID493208 (National Center for Advancing Translational Sciences (NCATS), 2011).
The whole screen tested about 44,000 compounds, of which about 340 (0.77%) were called active. Another 5% or so got no clear call; they are omitted. The call rests on the fitted dose curve; in most records, active means well fitted inhibition curve with a large enough effect; inconclusive means small, poorly fitted or top-dose-only effect; inactive means flat fitted curve, though single readings scatter. The list shows a part of the results.

Experiment: Acumen qHTS Assay for Inhibitors of the mTORC1 Signaling Pathway in MEF (Tsc2-/-, p53-/-) Cells: Sytravon;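 further: plate controls were DMSO for no effect and rapamycin for full effect; nearly all actives have a fitted effect of over 50% in size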
Conditions: phospho-rpS6 immunofluorescence/PI, 24 h; series mostly up to 38.3 µM; activity change, negative = inhibition: at the top concentration
Method in brief: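 Plate MEFs (Tsc2-/-, p53-/-, empty vector) in DMEM/10% FBS; after 24 h add compound, incubate 24 h at 37 degree Celsius; fix in PFA/TX-100, block, stain phospho-rpS6 and 10 uM PI; scan at 488 nm; report % positive cells.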

Activity change, negative = inhibition, inactive:
COc1ccc(S(=O)(=O)N2CCN(c3ccccc3)CC2)cc1-c1noc(C)n1 -0.582%
Cc1ccccc1Cn1cc(CCC(=O)NCc2cccc(Br)c2)c2ccccc21 -19.6%
O=C(c1cnc2c(c1)COc1ccccc1-2)c1ccccc1O -15.1%
CC(C)(C)NC(=O)CSc1nc(-c2ccc(F)cc2)cc(C(F)(F)F)n1 -0.664%
COc1ccc(S(=O)(=O)NCC(c2ccco2)N2CCN(c3ccc(F)cc3)CC2)cc1 (configuration not stated) -1.49%
CC(C)c1cnc2c(c1SCC(=O)c1ccccc1)c(=O)n(C)c(=O)n2C 0.295%
O=C(NCc1ccccc1)c1ccc2c(c1)N(Cc1ccccc1)C(=O)c1ccccc1S2(=O)=O 3.12%
CCOC(=O)Cn1c(=O)n(C2CCCCC2)c2nc(-c3ccc(OC)cc3)nc(C(N)=O)c21 1.3%
Cc1cc(C)cc(NC(c2nnc(-c3cccc(F)c3)o2)c2ccc(F)cc2Cl)c1 (configuration not stated) -21%
COc1ccc(Cc2nc3ccc(C(=O)NCCc4ccc(OC)c(OC)c4)cc3o2)cc1 -8.97%
Cc1cc(C)c(S(=O)(=O)Nc2cc(Cl)c3oc4c(c3c2)C(=O)CCC4)cc1C 3.72%
Cn1c(=O)n(C)c2cc(CNCc3ccccc3)ccc21 -0.899%
Cc1ccc(CNS(=O)(=O)c2cc(Br)cc3c2N(C(=O)C2CC2)CC3)cc1 -2.58%
CCOc1ccc(C(=O)Nc2ccc(-c3nnc4n3CCCCC4)cc2)cc1OCC 5.12%
Cc1ccc(Cn2c(=O)n(Cc3ccccc3)c(=O)c3c(C)c(C)sc32)cc1 2.71%
Cc1ccc(CNC(=O)C(=O)NCC(c2ccco2)S(=O)(=O)c2ccc(C)cc2)cc1 (configuration not stated) -1.89%
CC(C)(C)C(=O)Nc1nc2nc(-c3ccccc3)cc(=O)n2[nH]1 -0.787%
CCCCNC(=O)CN1C(=O)c2c(c3ccccc3n2C)C1c1ccc(OC)cc1 (configuration not stated) -1.99%
Cc1ccc2oc(-c3cccc(NC(=O)c4ccc(N5CCC(C)CC5)c([N+](=O)[O-])c4)c3)nc2c1 4.32%
Cc1oc(-c2ccc(Cl)cc2)nc1CN1CCCC(C(=O)NCCc2ccccc2)C1 (configuration not stated) 3.73%
CCc1cccc(C)c1NC(=O)c1cc(S(=O)(=O)N2CCC3(CC2)OCCO3)ccc1F -0.951%
COc1ccc(C2CC(=O)c3cc(-c4nc(-c5cccc([N+](=O)[O-])c5)cs4)c(=O)n(-c4ccc(F)cc4)c3C2)cc1 (configuration not stated) -13.7%
CC(=O)c1ccc(NC(=O)CSc2c(C(C)C)cnc3c2c(=O)n(C)c(=O)n3C)cc1 -0.582%
Cc1ccc(S(=O)(=O)N2CCCc3cc(NS(=O)(=O)c4ccc(C)c(C)c4)ccc32)cc1 0%
O=C(Cn1c(=O)n(Cc2ccc(C(=O)NCc3ccc4c(c3)OCO4)cc2)c(=O)c2ccccc21)Nc1ccc(F)cc1F -11.2%
Cc1c(-c2nnc(SCC(=O)Nc3ccc(Br)cc3)o2)nnn1-c1ccc(F)cc1 -0.995%
COc1ccc(C2(N3CCN(c4cccc(C)c4C)CC3)C(=O)c3ccccc3C2=O)cc1 -14.9%
O=C(CS(=O)(=O)c1cccc2nsnc12)N1CCN(c2ccccc2)CC1 -7.3%
CCOc1ccc(CNCCSc2nnnn2C)cc1OC 2.85%
COc1ccc(-c2nc(C)c(CCNS(=O)(=O)c3ccc(F)cc3)s2)cc1OC -16.7%
COC(=O)c1ccccc1NC(=O)c1cn2c3c(ccc(Cl)c3c1=O)OC(C)C2 (configuration not stated) 2.01%
CC(C)c1ccc(CN(Cc2ccco2)c2cnc(S(C)(=O)=O)nc2C(=O)Nc2ccccc2)cc1 -0.986%
CCCCNC(=O)C1CCN(c2nc3ccc(C)cc3[nH]2)CC1 4.55%
Cc1ccc(NC(=O)Cn2c(=O)oc3cc(S(=O)(=O)N4CCCC4)ccc32)cc1F -2.4%
Cc1nc2ccc(S(=O)(=O)CCC(=O)Nc3ccccc3C)cc2s1 -16.2%
CCOC(=O)c1ccc(NC(=O)C2CCCN(c3ncnc4onc(C)c34)C2)cc1 (configuration not stated) -9.34%
COc1ccccc1N1CCN(CCCNC(=O)Cn2ncc3c([nH]c4ccccc43)c2=O)CC1 -8.85%
O=C(CC1NCCNC1=O)Nc1cccc(F)c1 (configuration not stated) 1.84%
Cc1ccc2ncc3c(-c4ccccc4)nn(CC(=O)NC4CCCCC4)c3c2c1 -0.0135%
COc1ccc(NC(=O)CSC2=Nc3ccccc3C3=NC(CCC(=O)NCc4ccco4)C(=O)N23)cc1 (configuration not stated) -1.14%
COc1ccccc1CNC(=O)C(=O)NCC(c1ccc2c(c1)OCO2)N1CCOCC1 (configuration not stated) -18.9%
CCc1ccc(CN2CCc3nc(Nc4ccc5c(c4)OCCO5)ncc3C2)cc1 0%
CCc1ccc(CNc2nc3nc(C)c(Cc4ccccc4)c(=O)n3[nH]2)cc1 3.38%
CCc1ccc(-c2nc(SCC(=O)NCCOC)c(-c3ccc(C)cc3)[nH]2)cc1 -5.35%
CC(=O)c1cccc(NC(=O)C2=CC(c3ccco3)=NS(=O)(=O)N2C)c1 -1.48%
COc1ccc(Nc2nnc(-c3ccc(C)c(S(N)(=O)=O)c3)c3ccccc23)cc1 9.28%
COc1ccc(CCNc2oc(COc3ccc(Cl)cc3)nc2C#N)cc1OC 7.51%
CCc1cccc(C)c1NC(=O)c1cnn(-c2ccc(F)cc2)c1-n1cccc1 -1.44%
CSc1nn(Cc2cccc(F)c2)c(N(C(C)=O)C(C)=O)c1S(=O)(=O)c1ccccc1 4.44%
Cc1cccc2sc(N3CCN(C(=O)c4ccco4)CC3)nc12 0.436%
CCOc1ccc(S(=O)(=O)Nc2ccc(-c3ccc(N4CCCC4)nn3)cc2)cc1 -0.333%
Cc1cccc(S(=O)(=O)c2cn(Cc3ccccc3)c3cc(N4CCCC(C)C4)c(F)cc3c2=O)c1 (configuration not stated) -0.24%
Clc1ccc(CSc2nc(NCCc3ccccc3)c3ccccc3n2)cc1 -0.803%
Cc1cc(NC(=O)C2CCCN(S(=O)(=O)c3cccc4nonc34)C2)ccc1Br (configuration not stated) 3.53%
COc1ccc(OC)c(CNCc2c(C(=O)O)n(Cc3ccccc3)c3cc(OC)ccc23)c1 -1.61%
CCC(=O)N1CCc2cc(S(=O)(=O)NC(CC(C)C)C(=O)Nc3ccc(CC)cc3)ccc21 (configuration not stated) -11.4%
O=C(CN1N=C(c2ccc(Cl)cc2)CCC1=O)NCc1ccc(F)cc1 9.58%
O=C1Nc2ccccc2Oc2cc(Oc3ccc(Cl)cc3)ccc21 -6.46%
Cc1ccc(-c2cc(C(F)(F)F)n3nc(C(=O)Nc4ccc(C#N)cc4)cc3n2)cc1 11.4%
CCOc1ccccc1CNC(=O)CCCN1C(=O)CCn2nc(-c3cccn3C)cc21 1.39%
Cc1ccc(CNC(=O)C2CCN(S(=O)(=O)c3ccc4c(c3)oc(=O)n4C)CC2)cc1 2.92%
CCc1ccc(-n2nc(C)c3c(C)cc(=O)n(CC(=O)Nc4ccc(OC)c(OC)c4)c32)cc1 -1.87%
CCOC(=O)c1c(C)[nH]c(C)c1S(=O)(=O)N1CCCC(C(=O)N2CCN(c3cc(C)ccc3C)CC2)C1 (configuration not stated) -7.26%
CCOc1ccc(CNC(=O)Cn2ncc3c(=O)oc4ccc(C)cc4c32)cc1 1.8%
Cc1ccc(C)c(CN2C(=O)c3ccccc3S(=O)(=O)c3ccc(C(=O)N4CCOCC4)cc32)c1 -7.96%
CCC(CC)C(=O)Nc1ccccc1C(=O)OCc1cc(=O)n2nc(C3CCCCC3)sc2n1 0%
COc1ccc(Cl)cc1N(C)C(=O)Cn1cnc2sc(C)c(S(=O)(=O)N3CCN(c4ncccn4)CC3)c2c1=O 2.96%
COc1ccc(C(=O)N2CCCCC2CCN2CCCCC2)cc1 (configuration not stated) -2.78%
COc1ccc(Cl)cc1NC(=O)[C@H]1O[C@@H]2OC(C)(C)O[C@@H]2[C@H]2OC(C)(C)O[C@H]21 -3.6%
O=S(=O)(c1cccs1)N1CCN(c2ccc(Cl)cc2)CC1 11.9%
COc1ccc(NC(=O)Cn2cc(C(=O)C3CC3)c3ccccc32)cc1 -10.2%
CCN1CCN(C(=O)c2ccc3c(c2)N(Cc2cc(C)ccc2C)C(=O)c2ccccc2S3=O)CC1 (configuration not stated) -6.05%
COC(=O)c1cc(NC(=O)CN(c2ccccc2)S(=O)(=O)N(C)C)ccc1Cl -20%
NS(=O)(=O)c1ccc(CCNc2nc3c(-c4cccc(F)c4)nnn3c3ccc(Cl)cc23)cc1 -6.52%
CCOc1ccccc1NC(=O)Cn1nnc2sc3c(c2c1=O)CCC(C(C)(C)C)C3 (configuration not stated) -3.31%
Cc1ccc(CSc2nc3ccc(NC(=O)COc4ccccc4F)cc3s2)cc1 0.714%
CCCCN(CCCC)S(=O)(=O)c1ccc2oc(C(=O)NCc3ccccc3)c(C)c2c1 0.907%
Cc1cc(C)c(/C=C/c2onc(C)c2S(=O)(=O)N2CCC(C(=O)NCc3ccco3)CC2)c(C)c1 -2.1%
CCOC(=O)c1c(C)[nH]c(C)c1S(=O)(=O)N(C)CC(=O)N1CCN(c2ccccc2OC)CC1 0%
CCOC(=O)N1CCN(C(=O)CN(c2ccc(C)cc2C)S(=O)(=O)c2ccccc2)CC1 5.59%
O=C(CN1C(=O)C2(SCC(=O)N2c2cccc(Cl)c2)c2ccccc21)NC1CCCCC1 (configuration not stated) 6.63%
O=C(CNS(=O)(=O)c1ccc(Br)s1)N1CCN(c2ccccc2F)CC1 -21.2%
Cc1nn(CC(=O)N2CCN(c3ccccc3)CC2)c(=O)c2cccn12 2.21%
CCc1nn(CC(=O)NCc2cccc(OC)c2)c(=O)c2cc3cc(F)ccc3n12 -1.63%
Cc1ccc(-c2nc3c(cnn3-c3ccccc3)c(=O)n2-c2ccc(Cl)cc2)cc1 1.56%
O=C(COCc1cc(-c2ccco2)on1)Nc1ccc(OC(F)(F)F)cc1 -8.37%
COc1cccc(OC)c1C(=O)Nc1ccc2c(c1)CCCN2S(=O)(=O)c1ccc(C)cc1 -25.2%
Cc1oc(-c2ccc(Cl)cc2)nc1Cn1c(=O)cc(-c2ccccc2)c2c(C)nn(C)c21 3.12%
Cc1ccc(-n2ncc3c(NCCC4=CCCCC4)ncnc32)cc1C -24.5%
COc1ccc(-c2onc(C)c2C)cc1S(=O)(=O)N1CCC(C)CC1 -5.33%
CCc1ccc(NC(=O)c2ccc(CN3C(=O)C(C)=C(c4ccc(C)cc4)S3(=O)=O)cc2)cc1 0.412%
COc1cccc(-c2nc(C(N)=O)c3c(n2)n(-c2ccc4c(c2)OCO4)c(=O)n3C)c1OC -13.9%
